The list shows a part of the results. Single values are uncertain, as repeats are few or missing.
The molecules below were run on WM3526 (assay: cell count relative to DMSO control; melanoma cells; higher = more viable cells). Settings: library dose: low library concentration; 72 h.
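Further: cell number obtained by counting DAPI-stained nuclei in high-throughput microscope images with image analysis software, screen run in 1,536-well plates.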

Structure (SMILES) | cell count [%]
O=C(O)[C@@H]1[O][Sb](=[O])([O][Sb]2(=[O])[O][C@H]([C@H](O)CO)[C@H](O)[C@H](C(=O)O)[O]2)[O][C@H]([C@H](O)CO)[C@@H]1O (stereo not given in full) [stibogluconate] + Cn1c(Nc2ccc(C(F)(F)F)cc2)nc2cc(Oc3ccnc(-c4ncc(C(F)(F)F)[nH]4)c3)ccc21 [CHIR265] (first compound 2 µM, partner dose 0.08 µM) | 46.1
O=C(Nc1cc(C(F)(F)F)cc(C(F)(F)F)c1)c1cc(Cl)ccc1O + COc1cc2ncnc(Nc3ccc(Oc4ccccc4)cc3)c2cc1OC [SrcI1] (first compound 0.016 µM, partner dose 2 µM) | 77.3
O=C(Nc1ccccc1)c1cc([N+](=O)[O-])ccc1Cl + N#Cc1c(O)c2c(-c3ccc(-c4ccccc4O)cc3)csc2[nH]c1=O [A769662] (first compound 2 µM, partner dose 2 µM) | 96.7
Cc1cc(N2CCOCC2)cc2[nH]c(-c3c(NC[C@@H](O)c4cccc(Cl)c4)cc[nH]c3=O)nc12 + COc1ccc2c(c1)CCC1C2CCC2(C)C(NCCCCCCN3C(=O)C=CC3=O)CCC12 [U73122] (first compound 0.2 µM, partner dose 0.4 µM) | 111
O=C(O)c1ccc2c(c1)nc(Nc1cccc(Cl)c1)c1ccncc12 + c1cc(-c2cnn3cc(-c4ccc(OCCN5CCCCC5)cc4)cnc23)ccn1 [Dorsomorphin] (first compound 0.4 µM, partner dose 0.4 µM) | 82.9
O=C(Nc1cc(C(F)(F)F)cc(C(F)(F)F)c1)c1cc(Cl)ccc1O + CCN(CC)CCNC(=O)c1c(C)[nH]c(/C=C2\C(=O)Nc3ccc(F)cc32)c1C [sunitinib] (first compound 0.016 µM, partner dose 0.4 µM) | 104
Cc1cc(N2CCOCC2)cc2[nH]c(-c3c(NC[C@@H](O)c4cccc(Cl)c4)cc[nH]c3=O)nc12 + COc1cc2ncnc(Nc3ccc(Oc4ccccc4)cc3)c2cc1OC [SrcI1] (first compound 0.2 µM, partner dose 2 µM) | 84.6
O=C(Nc1ccccc1)c1cc([N+](=O)[O-])ccc1Cl + COc1cc(N2CCC(N3CCN(C)CC3)CC2)ccc1Nc1ncc(Cl)c(Nc2ccccc2S(=O)(=O)C(C)C)n1 [NVP-TAE684] (first compound 2 µM, partner dose 0.08 µM) | 93.7
O=C(Nc1cc(C(F)(F)F)cc(C(F)(F)F)c1)c1cc(Cl)ccc1O + NC(=O)Nc1cc(-c2cccc(F)c2)sc1C(=O)N[C@H]1CCCNC1 [AZD7762] (first compound 0.016 µM, partner dose 0.02 µM) | 110
Cn1nnc2c(C(N)=O)ncn2c1=O [temozolomide] + O=C(Nc1cccc(Cl)c1)Nc1ncc(CCNc2ncnc3ccsc23)s1 [SNS314] (first compound 2 µM, partner dose 0.0008 µM) | 105
O=C(O)c1ccc2c(c1)nc(Nc1cccc(Cl)c1)c1ccncc12 + O=C(O)c1ccc(-c2c[nH]c3ncc(-c4ccccc4)cc23)cc1C1CCCC1 [GSK650394] (first compound 0.4 µM, partner dose 0.16 µM) | 87.5
O=C(Nc1cc(C(F)(F)F)cc(C(F)(F)F)c1)c1cc(Cl)ccc1O + OCc1c[nH]c2ccccc12 [Indole-3-carbinol] (first compound 0.016 µM, partner dose 0.8 µM) | 91.5
O=C(O)[C@@H]1[O][Sb](=[O])([O][Sb]2(=[O])[O][C@H]([C@H](O)CO)[C@H](O)[C@H](C(=O)O)[O]2)[O][C@H]([C@H](O)CO)[C@@H]1O (stereo not given in full) [stibogluconate] + C[C@]1(c2nc3c(C(N)=O)cccc3[nH]2)CCCN1 [Veliparib] (first compound 2 µM, partner dose 1.4 µM) | 105
O=C(Nc1cc(C(F)(F)F)cc(C(F)(F)F)c1)c1cc(Cl)ccc1O + O=C(CCCCCCC(=O)Nc1ccccc1)NO [vorinostat] (first compound 0.016 µM, partner dose 0.08 µM) | 81.7
O=C(Nc1cc(C(F)(F)F)cc(C(F)(F)F)c1)c1cc(Cl)ccc1O + CC1(C)NC(=O)N(c2ccc([N+](=O)[O-])c(C(F)(F)F)c2)C1=O [nilutamide] (first compound 0.016 µM, partner dose 1 µM) | 115
